# Measured values published in PubChem BioAssay AID488969 (Vanderbilt High Throughput Screening Facility, 2010).
# Whole data set: some 110,000 compounds, median “z-score” near -0.1, cut for the highest 2% near 2. Some of the results follow. Activity calls are given as the source filed them.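 The calls were made as follows: active = z-score in the third read window above 3 or below -3; inactive = the rest.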
# Target: Metabotropic glutamate receptor 8 (Rattus norvegicus) (UniProt P70579)
# Assay: mGluR8 Gi/Go-coupled signaling modulation – cell-based, rat, thallium flux, HTS, primary screen (AID 488969)
# Settings: HEK293 rat mGluR8, GIRK (G protein-gated inwardly rectifying potassium channel) thallium flux, FluoZin2; at 10 µM; stronger effect = higher value; submaximal glutamate (EC20) added with thallium
# UniProt P70579, sequence (P70579 whole entry, looked up): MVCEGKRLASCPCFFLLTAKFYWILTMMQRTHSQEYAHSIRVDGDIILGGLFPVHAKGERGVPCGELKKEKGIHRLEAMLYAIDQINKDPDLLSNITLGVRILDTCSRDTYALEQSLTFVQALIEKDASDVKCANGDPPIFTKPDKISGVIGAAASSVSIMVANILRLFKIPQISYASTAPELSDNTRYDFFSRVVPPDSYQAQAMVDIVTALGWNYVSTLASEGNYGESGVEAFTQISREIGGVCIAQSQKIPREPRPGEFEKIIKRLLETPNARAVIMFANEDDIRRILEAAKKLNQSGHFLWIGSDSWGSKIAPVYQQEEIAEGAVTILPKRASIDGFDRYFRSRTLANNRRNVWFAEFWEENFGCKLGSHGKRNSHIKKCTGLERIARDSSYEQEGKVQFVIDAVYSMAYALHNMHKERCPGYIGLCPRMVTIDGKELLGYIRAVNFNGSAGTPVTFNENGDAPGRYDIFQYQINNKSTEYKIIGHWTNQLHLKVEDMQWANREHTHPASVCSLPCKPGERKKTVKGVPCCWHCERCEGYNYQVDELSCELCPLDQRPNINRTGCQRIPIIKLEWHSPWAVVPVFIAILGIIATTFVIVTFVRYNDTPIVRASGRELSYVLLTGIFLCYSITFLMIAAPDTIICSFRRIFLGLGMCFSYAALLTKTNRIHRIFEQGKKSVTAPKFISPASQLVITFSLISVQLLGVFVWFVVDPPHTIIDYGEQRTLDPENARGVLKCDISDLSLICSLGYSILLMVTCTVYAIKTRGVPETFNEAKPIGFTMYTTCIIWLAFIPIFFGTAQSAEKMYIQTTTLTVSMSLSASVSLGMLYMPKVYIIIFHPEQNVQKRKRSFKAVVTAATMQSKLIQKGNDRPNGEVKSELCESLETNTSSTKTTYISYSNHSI
row,Compound,z-score
1,O=C1CCC(=O)N1CNc1ccc(Oc2ccccc2)cc1,-0.173
2,COc1ccccc1/C=N\Nc1cc(C)nc(-n2nc(C)cc2C)n1,-0.0701
3,C=CC(=C)CC(NC)c1ccccc1 (stereo unspecified),0.239
4,Cc1nnc(SCC(=O)Nc2nsc(-c3ccc(C(C)(C)C)cc3)n2)s1,-0.00925
5,Cc1ccc2nc(SCC(=O)Nc3cc([N+](=O)[O-])ccc3F)[nH]c2c1,-0.422
6,O=c1c2ccccc2oc2nc(-c3ccco3)n(-c3ccccc3)c(=O)c12,-0.104
7,CC(Sc1nncn1-c1ccccc1)C(=O)Nc1cccc([N+](=O)[O-])c1 (stereo unspecified),-0.46
8,Cc1ccc(C)c(Cc2c(C)nc3c(C(=O)NCc4ccc5c(c4)OCO5)cnn3c2C)c1,-0.983
9,COc1ccc2c(c1)c1ncnc(N3CCN(Cc4ccc5c(c4)OCO5)CC3)c1n2C,0.202
10,CCCCCCCOc1ccc(OC(=O)c2ccncc2)cc1,-0.427
11,COc1ccc(OC)c(-n2nnnc2SCC(=O)Nc2cc(C)ccc2OC)c1,-0.462
12,Cc1nn2c3c(cnc2c1-c1ccccc1)C(=O)CC(C)C3 (stereo unspecified),-0.361
13,O=C(CCCn1c(SCC(=O)c2ccc(F)cc2)nc2ccccc2c1=O)NCc1ccco1,0.194
14,CC(=O)OC(Cn1ccnc1)c1ccccc1 (stereo unspecified),0.415
15,CCOc1cc(S(=O)(=O)N(CC)CC)c(OCC)cc1-n1cnnn1,-0.332
16,CC(C)C(c1nnnn1C(C)(C)C)N1CCOCC1 (stereo unspecified),0.0185
17,CC(=O)NCCn1c(SCc2ccc(C)cc2)nc2ccccc2c1=O,-0.294
18,Cn1c(=O)c2c(ncn2CC(=O)Nc2ccccc2Sc2ccccc2)n(C)c1=O,-0.019
19,COc1ccc(/C=C/C(=O)N2CCN(S(=O)(=O)/C=C/c3ccccc3)CC2)cc1OC,active: -3.39
20,Cc1cc(=O)n2[nH]c(C)c(-c3ccccc3)c2n1,-0.675
21,CC(C)OCCCNc1ncnc2c1[nH]c1ccccc12,-0.338
22,CC(C)Cn1c(-c2ccc(C#N)cc2)nc2c1c(=O)[nH]c(=O)n2CC(C)C,0.0242
23,CCOC(=O)CSc1nc2cc3c(cc2cc1C#N)OCO3,0.0956

row,Compound,z-score
1,Nc1ccc(-c2nnc(-c3ccc(-c4ccccc4)cc3)o2)cc1,-0.17
2,CC1(C)CC(=O)C(C=NCCN2CCN(C(=S)Nc3cccc(Cl)c3)CC2)=C(O)C1,-0.0668
3,O=C(Nc1cnc2ccccc2c1)c1ccncc1,-0.0962
4,O=C1CC(N2CCN(C/C=C/c3ccccc3)CC2)C(=O)N1Cc1cccs1 (stereo unspecified),0.565
5,CC(C)COP(=O)(OCC(C)C)C(O)c1ccc(F)cc1 (stereo unspecified),0.263
6,COc1ccc2[nH]c(C)c(CCN(Cc3cccs3)C(=S)Nc3ccccc3OC)c2c1,-0.0821
7,O=C(c1ccc2snnc2c1)N1CCN(c2ccccn2)CC1,-0.329
8,COC(=O)c1cn(NC(=O)C2CCC(C)CC2)c(=O)c2ccccc12 (stereo unspecified),-0.0485
9,CC(OC(=O)c1cc(-c2cccnc2)nc2ccccc12)C(=O)Nc1ccc2ccccc2c1 (stereo unspecified),-0.277
10,COc1cc(OC)cc(-c2nnc(SCC(=O)N3CCCC3)o2)c1,-0.103
11,CC(CNS(=O)(=O)c1cc(Cl)ccc1Cl)CN(C)C (stereo unspecified),0.474
12,COCCN(C(=S)Nc1ccccc1OC)C1CCN(C(C)=O)CC1,-0.367
13,O=C(CN1CCN(c2ccccc2)CC1)N1N=CCC1c1ccccc1 (stereo unspecified),0.109
14,COc1ccc(Br)cc1CN(C)CC(=O)Nc1c(Cl)cccc1Cl,-0.245
15,O=C(Nc1cccc2c1CCCC2)c1ccc(Br)o1,-0.941
16,Cc1cc(C(F)(F)F)c2c(=O)[nH]c(=O)n(Cc3ccccc3)c2n1,active: -3.29
17,CC(=O)N(c1ccccc1)c1ccc([N+](=O)[O-])cc1[N+](=O)[O-],-0.168
18,CC(=O)Nc1cccc(N2C(=O)CCC2=O)c1,0.49
19,COc1cc(OC)c(C2N(c3ccc(Cl)cc3)C(=O)C3CCCN32)cc1OC (stereo unspecified),0.129
20,O=C(O)c1ccccc1C(=O)Nc1ccccn1,0.194
21,Cc1ccc(N=Nc2c(N)nn(-c3ccccc3)c2N)cc1,-0.169
22,Cc1ccc(N2C(=O)C3NN=C(C(=O)OCc4ccccc4)C3C2=O)c(C)c1 (stereo unspecified),-0.193
23,COc1ccc(S(=O)(=O)Cc2ccc(C(=O)N3CCc4ccccc4C3)o2)cc1,-0.356

row,Compound,z-score
1,CCOc1ccccc1N1CCN(C(=O)C(F)(F)F)CC1,-0.337
2,CC[n+]1c(-c2ccc(C)cc2)csc1Nc1c(C)n(C)n(-c2ccccc2)c1=O,-0.519
3,O=C(c1ccc(S(=O)(=O)N2CCOCC2)cc1)N1CCN(c2ccccc2F)CC1,-0.395
4,Cc1ccc(OCC(=O)NCc2cccs2)cc1,0.0592
5,O=C(CN1CCC(n2nnc3cc(F)ccc32)CC1)Nc1ccc2c(c1)CCC2,-0.25
6,CC(C)Cn1c(NCCO)nc2ccccc21,-0.517
7,CCOC(=O)C1=C(C)NC(C)=C(C(=O)OCC)C1C(=O)OCC(=O)c1ccc2c(c1)OCCO2,-0.495
8,O=C(N/N=C/c1ccc2ccccc2c1)c1ccc(COc2ccc3c(c2)CCC3)o1,-0.0437
9,CC(C)C(=O)NC(=S)Nc1ccc(S(=O)(=O)N2CCCC2)cc1,-0.314
10,Cc1ccccc1C(=O)NN1CCOCC1,-0.107
11,CCn1c(SCC(=O)N2CCN(c3ccc(F)cc3)CC2)nnc1-c1ccncc1,0.119
12,Cc1noc(C)c1S(=O)(=O)NCCCN1CCN(Cc2ccccc2)CC1,-0.225
13,Cc1ccc(OCC(=O)NC2CCS(=O)(=O)C2)cc1 (stereo unspecified),-0.0588
14,CCO/C(C)=C1\C(=O)N(CC)c2ccccc21,-0.822
15,COc1ccc(N2CC(C(=O)Nc3ccc(N4CCOCC4)cc3)CC2=O)cc1 (stereo unspecified),0.399
16,O=C(CCN1C(=O)c2ccccc2C1=O)N1CCN(Cc2ccccc2)CC1,-0.0174
17,S=C(NCC1COc2ccccc2O1)Nc1ccc(Br)cc1 (stereo unspecified),-0.41
18,CC/C(=N\OC(=O)c1ccc(OC(C)C)cc1)c1ccc(C)cc1,0.271
19,O=C(C(Cc1ccccc1)n1cccc1)N1CCN(c2ccccc2)CC1 (stereo unspecified),-0.211
20,COc1ccc(-c2nnn(CCc3nn[nH]n3)n2)cc1,-0.103
21,Cc1cccc(N2C(=O)CC(Sc3nnc(C)s3)C2=O)c1 (stereo unspecified),-0.108
22,O=C1OC(Nc2ccc3ncccc3c2)c2ccccc21 (stereo unspecified),-0.219
23,COc1cc(C(=O)OCCNC(=O)c2ccncc2)cc(OC)c1OC,-0.237

row,Compound,z-score
1,CCCCCCCCOC(=O)c1ccc(N)cc1,-0.528
2,CCN(CC)CCCNC(=O)Cn1ncc2c(=O)oc3ccc(C)cc3c21,-0.158
3,CN(CC(=O)NCCc1ccccc1)S(=O)(=O)c1cccs1,0.69
4,CC(=O)c1ccc(-n2nnnc2SCC(=O)Nc2cccc(NC(=O)c3ccco3)c2)cc1,-0.263
5,COc1ccc(-n2nc3c(c2NC(=O)C2CC2)CS(=O)C3)cc1 (stereo unspecified),0.0323
6,CCOC(=O)C(NC(=O)NC1CCCCC1)(c1ccccc1)C(F)(F)F (stereo unspecified),-0.42
7,Cc1ccc(S(=O)(=O)Nc2ccc(S(=O)(=O)NC(C)(C)C)cc2)cc1,-0.0722
8,CCOc1ccccc1N1CCN(C(=S)NCc2ccco2)CC1,-0.442
9,CCCOP(=O)(c1ccc(N(C)C)cc1)C(Nc1ccccc1)c1ccc(N(C)C)cc1 (stereo unspecified),0.25
10,COc1cccc(CN2CCNC(=O)C2CC(=O)O)c1OC (stereo unspecified),0.165
11,N#Cc1cn(-c2ccccc2)nc1-c1ccco1,-0.0798
12,CC(C)CCn1cnc2c(sc3nc4c(cc32)CSC(C)(C)C4)c1=O,-0.32
13,C[C@H](N)c1nnc(SCC(=O)c2ccc(Cl)cc2)o1,0.0936
14,CN1/C(=C/C(=O)c2nc(S(C)(=O)=O)ncc2Cl)C(C)(C)c2ccccc21,-0.00936
15,CC(=O)C1=C(c2ccccc2)OC(N)=C(C#N)C1c1ccc(O)cc1 (stereo unspecified),-0.487
16,O=C(Nc1ccccc1)Nc1ccc(C(=O)N2CCOCC2)cc1,-0.0267
17,COc1ccc(OCC(=O)N/N=C/c2ccc(O[C@@H]3O[C@H](CO)[C@@H](O)[C@H](O)[C@H]3O)cc2)cc1,0.158
18,Cc1nnc(SCCn2c(N3CCCC(C)C3)nc3c2c(=O)n(C)c(=O)n3C)s1 (stereo unspecified),-0.358
19,Oc1ccc(Cl)cc1C1=NCCNC(C(F)(F)C(F)F)=C1,-0.383
20,COc1ccc(NC(=S)N/C(=N/CS(=O)(=O)c2ccccc2)c2ccccc2)cc1,-0.694
21,Cc1ncc(S(=O)(=O)c2ccccc2)c(-c2ccccc2)n1,1.19
22,O=C1CC(c2ccco2)CC(O)=C1C=NCC1CCNCC1 (stereo unspecified),-0.0532
23,COc1ccc(NS(=O)(=O)c2ccc(N3CCOCC3)c(NC(=O)c3ccc(F)cc3)c2)cc1,0.163

row,Compound,z-score
1,Cc1cccc(CSCCNC(=O)CSCc2ccc([N+](=O)[O-])cc2)c1,0.0119
2,CCOc1cc(S(=O)(=O)N(CC)CC)ccc1Br,0.61
3,COc1cccc(CNC(=O)C(=O)NCC2CCCO2)c1 (stereo unspecified),0.092
4,O=C(Nc1ccccc1)/C(=C/c1ccc([N+](=O)[O-])cc1)NC(=O)c1ccccc1,0.0934
5,Cc1cccc(-c2nsc(SCC(=O)N3CCCC3)n2)c1,0.846
6,O=C(Cn1ncc2c(=O)oc3ccccc3c21)NCCCN1CCCC1=O,0.0795
7,CCNC(=O)COC(=O)c1cc(-c2ccc(OC)cc2)nc2ccccc12,-0.186
8,O=C(COC(=O)c1cccnc1Cl)c1ccccc1,-0.0785
9,COC(=O)C(Cc1ccc(OC(=O)c2ccccc2C)cc1)N1Cc2ccccc2C1=O (stereo unspecified),-0.569
10,Cc1cc(C(F)F)n2nc(C(=O)Nc3cccnc3Cl)nc2n1,-0.918
11,COc1ccc(NC(=S)NN2C(C)CCCC2C)cc1 (stereo unspecified),-0.209
12,CCOCCCNC(=S)NNC(=O)CCn1nc(C)c(Br)c1C,0.0454
13,O=C(O)/C=C\C(=O)Nc1ccccc1C(=O)N1CCN(c2ccc(Cl)cc2)CC1,-0.192
14,O=C(C=C1SCCS1)/C=C/c1ccco1,0.393
15,Cc1cnc(C(=O)Nc2ccc(F)cc2)cn1,0.237
16,COC(=O)Cn1c(CN2CCN(c3ccc(F)cc3)CC2)nc2c1c(=O)n(C)c(=O)n2C,0.104
17,O=C(c1cccs1)n1nc(-c2ccco2)nc1SCc1ccccc1,-0.335
18,CC1CCCN(c2ccc(C(=O)Nc3ccc4c(c3)OCO4)cc2[N+](=O)[O-])C1 (stereo unspecified),-0.321
19,CCN(CC)S(=O)(=O)c1ccc(N2CCCC2)c(NS(=O)(=O)c2ccc([N+](=O)[O-])cc2)c1,-0.268
